Measured values: PubChem BioAssay AID488969 (Vanderbilt High Throughput Screening Facility, 2010)
Over roughly 110,000 compounds, “z-score” has its median near -0.1; the highest 2% begin near 2. This is one part of the list. Calls of active or inactive are those of the source.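 The calls were made as follows: active = z-score in the third read window above 3 or below -3; inactive = the rest.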

What follows are compounds tested against Metabotropic glutamate receptor 8 (Rattus norvegicus) (UniProt P70579) (assay: mGluR8 Gi/Go-coupled signaling modulation – cell-based, rat, thallium flux, HTS, primary screen (AID 488969)). Conditions: HEK293 rat mGluR8, GIRK (G protein-gated inwardly rectifying potassium channel) thallium flux, FluoZin2; at 10 µM; stronger effect = higher value; submaximal glutamate (EC20) added with thallium.
Sequence of UniProt P70579 (P70579 whole entry, looked up): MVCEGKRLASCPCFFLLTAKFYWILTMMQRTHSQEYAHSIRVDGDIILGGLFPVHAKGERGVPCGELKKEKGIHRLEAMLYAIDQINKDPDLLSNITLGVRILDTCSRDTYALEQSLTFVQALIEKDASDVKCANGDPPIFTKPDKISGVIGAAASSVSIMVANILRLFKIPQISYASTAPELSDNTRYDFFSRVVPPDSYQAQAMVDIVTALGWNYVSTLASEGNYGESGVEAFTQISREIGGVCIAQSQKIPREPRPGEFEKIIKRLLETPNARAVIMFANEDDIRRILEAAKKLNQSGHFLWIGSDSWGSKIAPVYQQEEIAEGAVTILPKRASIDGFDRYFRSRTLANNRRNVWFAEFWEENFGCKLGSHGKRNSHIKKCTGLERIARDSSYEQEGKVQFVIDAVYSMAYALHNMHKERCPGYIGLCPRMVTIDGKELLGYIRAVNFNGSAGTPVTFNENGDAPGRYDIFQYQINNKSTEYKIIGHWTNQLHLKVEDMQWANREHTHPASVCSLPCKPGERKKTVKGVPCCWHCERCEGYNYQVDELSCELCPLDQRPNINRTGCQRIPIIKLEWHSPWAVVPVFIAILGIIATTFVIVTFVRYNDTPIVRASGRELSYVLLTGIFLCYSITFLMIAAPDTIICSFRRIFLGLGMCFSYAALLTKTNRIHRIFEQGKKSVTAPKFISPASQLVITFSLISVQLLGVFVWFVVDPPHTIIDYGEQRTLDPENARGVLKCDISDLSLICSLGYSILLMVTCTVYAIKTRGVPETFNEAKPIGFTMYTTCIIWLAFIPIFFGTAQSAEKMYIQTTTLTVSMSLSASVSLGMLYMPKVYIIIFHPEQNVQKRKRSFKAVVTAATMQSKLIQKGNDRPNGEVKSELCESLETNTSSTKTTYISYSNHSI
`CC(C)c1cc(C(N)=O)c(NC(=O)c2cccc(COc3ccc(Cl)cc3)c2)s1` showed a z-score of -0.0602. Work on `O=C(c1ccccc1Oc1ccccc1)N1CCN(c2ccccc2)CC1` yielded a z-score of -0.457. `Cc1cccc(/C=C2/S/C(=N/N=C3\CC4CCC3(C)C4(C)C)NC2=O)c1` (configuration not stated) showed a z-score of 0.879. Compound `CCCOc1ccc(C2NC(=S)NC(C)=C2C(=O)c2ccccc2)cc1OC` (configuration not stated) has a z-score of -0.572. Work on `O=C(NCCn1ccc2ccccc21)c1ccc(S(=O)(=O)N2CCOCC2)cc1` yielded a z-score of -0.259. `Cc1ccc(N2C(=O)c3ccc(C(=O)O)cc3C2=O)cc1C` was tested, and the z-score was -0.785. `C=C(C)c1cccc(C(C)(C)NC(=O)N2CCN(C)CC2)c1` showed a z-score of -0.103. With `O=C(OCc1cc2ccccc2[nH]c1=O)C1CCCO1` (configuration not stated) the z-score was 0.511. `CCCc1nnc(NC(=O)NCCN2C(=O)C3C4C=CC(C4)C3C2=O)s1` (configuration not stated) gave a z-score of 0.0137. `O=C(Nc1ccccc1)Nc1ccc(Br)cc1F` showed a z-score of -0.264. `O=[N+]([O-])c1cc([N+](=O)[O-])c(N2CCOCC2)cc1NCc1ccccc1` was tested, and the z-score was -1.61. For `Oc1cccc2ccc[n+](CC(O)Cn3c4ccccc4c4ccccc43)c12` (configuration not stated), the z-score was -0.428. `NC(=O)c1cc(Br)cc2c3c([nH]c12)CCCC3` was tested, and the z-score was 0.259. `COc1ccc(-c2[nH]c(-c3ccc4c(c3)OCO4)nc2-c2ccccc2)cc1` gave a z-score of -0.157. Compound `C=CCC(C=C)S(=O)(=O)c1ccc(C)cc1` (configuration not stated) has a z-score of -0.553. With `O=C(c1ccc2c(c1)N(Cc1ccccc1)CCS2)N1CCCCC1` the z-score was 0.565. With `CC(C)(C)c1nc2scc(-c3ccc(Cl)cc3)c2c(=O)o1` the z-score was 0.0761. With `COCCCN1CN(Cc2ccccc2)CNC1=S` the z-score was 0.294. `COC(=O)Cc1cc(=O)oc2c(C)c(O)ccc12` was tested, and the z-score was 0.017. In the case of `Cc1ccc(C(=O)O)cc1S(=O)(=O)N1CCC(C(=O)O)CC1`, the z-score is reported as 0.299. `O=C(O)COc1ccc(NC(=O)c2cccs2)cc1` was tested, and the z-score was 0.137. `CCSc1nnc(NC(=O)Cc2cccc(OC)c2)s1` showed a z-score of -0.365. In the case of `Cc1[nH]c(=O)c(C#N)cc1-c1ccccc1`, the z-score is reported as -0.00669. For `Nn1c(SCC(=O)Nc2ccc(F)cc2F)nnc1-c1cccnc1`, the z-score was -0.228. `O=C1NCCN1Cc1ccccc1` showed a z-score of -0.0214. `CC(C)N(Cc1nc(-c2ccccc2)no1)C(=O)c1ccc2c(c1)OCO2` was tested, and the z-score was -0.865. `O=C(c1ccccc1NS(=O)(=O)c1ccc(Br)s1)N1CCCC1` was tested, and the z-score was 0.271. Work on `C=C(C)Cn1c(-c2ccccc2)nc2ccccc21` yielded a z-score of 1.06. Compound `NS(=O)(=O)c1cccc(NC(=O)COC(=O)CCSc2ccccc2)c1` has a z-score of 0.0368. `COc1cc(-c2nnc(SCC(=O)N3c4ccccc4Sc4ccccc43)o2)cc(OC)c1OC` gave a z-score of -0.176. In the case of `NS(=O)(=O)c1ccc(NC(=S)N2CCN(c3ccccc3)CC2)cc1`, the z-score is reported as 0.13. Work on `CC(C)NS(=O)(=O)c1ccc(OCC(=O)N(C)Cc2ccccc2)cc1` yielded a z-score of -0.378. In the case of `CN1CC=C2C(C#N)=C(N)C(C#N)(C#N)[C@H](c3cccc(Cl)c3)C2C1` (some centres not stated), the z-score is reported as active: -3.11. `CCCCCCN1C=CC(=C/C=C(\C#N)C(=O)OCC)C=C1` was tested, and the z-score was -0.21. `O=S1(=O)C[C@H]2NC(=S)N(c3ccccc3)[C@H]2C1` was tested, and the z-score was -0.132. Compound `C=CCc1c(C)nc(SC)nc1Nc1ccccc1` has a z-score of -0.563. `Cc1c(O)nc(SC2CC(=O)N(c3ccccc3)C2=O)[nH]c1=O` (configuration not stated) showed a z-score of 0.139. For `CC1CC(C)CN(c2nc3c(c(=O)[nH]c(=O)n3C)n2CCCSc2nc3ccccc3s2)C1` (configuration not stated), the z-score was -0.467. For `O=C(NC(=O)c1ccccc1)OCC1CCCN2CCCCC12` (configuration not stated), the z-score was -0.0938. Compound `COc1ccc(-c2cn[nH]c2N)cc1OC` has a z-score of 0.0393. For `O=C(CN1CCN(S(=O)(=O)c2ccc(F)cc2)CC1)Nc1ccc(Cl)c(C(F)(F)F)c1`, the z-score was -0.132. Compound `COc1ccc(C(c2c(C)[nH]n(C(N)=S)c2=O)C(C#N)C#N)cc1` (configuration not stated) has a z-score of -0.815. In the case of `CNc1nc(-c2c[nH]c3ccccc23)cs1`, the z-score is reported as -0.116. `Cc1c(N2C(=O)C(=O)/C(=C(/O)c3ccccc3)C2c2ccc(F)cc2)c(=O)n(-c2ccccc2)n1C` (configuration not stated) gave a z-score of -0.483. Compound `COCCn1ccc(O)c(Cc2ccccc2)c1=O` has a z-score of -0.189. `Cc1cccc(NC(=S)Nc2c(C)n(C)n(-c3ccccc3)c2=O)c1C` showed a z-score of -0.253. Work on `Cn1c(NC(=O)/C=C/c2ccco2)cc(=O)n(C)c1=O` yielded a z-score of -0.0524. With `CCCNC(=O)c1c(N)n(-c2ccc(S(N)(=O)=O)cc2)c2nc3ccccc3nc12` the z-score was -0.0492. With `Cc1ccc(Nc2nc(CSc3nnnn3-c3ccccc3)cc(=O)[nH]2)cc1` the z-score was 0.664. `S=c1[nH]nc(-c2ccccn2)n1/N=C/c1ccc(Br)s1` was tested, and the z-score was active: 5.6. `Cn1nnnc1SCC(=O)Nc1ccccc1C(=O)NCc1ccccc1` showed a z-score of 0.00964. In the case of `O=C1c2ccccc2C(=O)N1CCSc1nncs1`, the z-score is reported as 0.647. `O=c1cc(-c2ccccc2)nc(SCc2ccccc2)[nH]1` showed a z-score of -0.134. Work on `COc1cccc(NC(=O)CN2C(=O)C(c3ccc(C)cc3)=NC23CCCCCC3)c1` yielded a z-score of 0.565. `COc1cccc2cc(S(=O)(=O)c3ccccc3)c(=Nc3ccc4c(c3)OCCO4)oc12` showed a z-score of -0.273. `COc1ccc(CN2CCN(S(=O)(=O)c3ccc(C)cc3)CC2)cc1Br` gave a z-score of -0.163. In the case of `O=C(CSc1nnc(-c2ccc(F)cc2)o1)Nc1ccccc1N1CCOCC1`, the z-score is reported as -0.906. Work on `CCc1ccccc1NC(=O)CSc1ccsc1[N+](=O)[O-]` yielded a z-score of -0.322. Work on `Cc1ccn(-c2ccc([N+](=O)[O-])cc2)n1` yielded a z-score of 0.0346. `COc1ccc(C2c3c(ccc4ccccc34)Oc3ncn4nc(Cc5ccccc5)nc4c32)cc1OC` (configuration not stated) was tested, and the z-score was -0.178. For `COc1ccc(OCC(=O)Nc2ccc(N3CCOCC3)cc2)cc1`, the z-score was 0.2. `CCCC(=O)Nc1sc2c(c1C#N)CC(C)(C)NC2(C)C` showed a z-score of -0.129. `CC(=O)c1ccc(OCC(O)CN2CCN(Cc3ccc4c(c3)OCO4)CC2)cc1` (configuration not stated) showed a z-score of 0.302. In the case of `CC1(C)Cc2ccccc2-c2nnc(SCC(=O)N3CCN(c4ccccc4)CC3)n21`, the z-score is reported as active: 3.2. With `CC(C)c1ccc(CNCc2ccccc2)cc1` the z-score was 0.0806. `CCOCCn1cnc2sc(C(=O)Nc3nc(C)c(C(=O)OCC)s3)c(C)c2c1=O` showed a z-score of -0.151. For `O=c1cnc2ccccc2n1CC1CCCCC1`, the z-score was -0.327. With `Cc1nc2ccccc2c(=O)n1NC(=O)/C=C/c1ccccc1Cl` the z-score was -0.0204. In the case of `Cc1nc2nc(CSc3nc4ccccc4s3)cc(=O)n2[nH]1`, the z-score is reported as -1.02. Work on `CCCCCNCc1cccn1C` yielded a z-score of -0.0238. For `Cc1ccc(-c2nn(-c3cc(Cl)ccc3[N+](=O)[O-])c(=O)c3ccccc23)cc1C`, the z-score was 0.0569. Work on `CCN1C(=O)/C(=C\N(C)C)c2ccccc21` yielded a z-score of 0.713. In the case of `CCn1c(Cc2ccccc2)nnc1SCC(=O)Nc1nc(C)cs1`, the z-score is reported as -0.0666. `COC(=O)CC1C(=O)NCCN1C(=O)c1ccccc1` (configuration not stated) showed a z-score of 0.315. Compound `COc1ccc(/C(O)=C2/C(=O)C(=O)N(CC3CCCO3)C2c2ccc(OC)c(OC)c2)cc1` (configuration not stated) has a z-score of -0.147. `O=C1CN(C(=O)COC(=O)c2oc3ccccc3c2COc2ccccc2)c2ccccc2N1` was tested, and the z-score was -0.462. In the case of `Cc1ccc(-n2c(N)c(C#N)c(-c3ccccc3)c(C#N)c2=O)cc1`, the z-score is reported as -0.271. Work on `C/C(=N\Nc1nc2c(s1)CCCC2)c1ccc(Cl)cc1` yielded a z-score of -0.144. `CC(C)c1ccc(N(CC(=O)NCCSC(C)(C)C)S(C)(=O)=O)cc1` was tested, and the z-score was 0.114. With `CCCc1nn(C)c2c1C(c1ccncc1)C(C#N)=C(N)O2` (configuration not stated) the z-score was -0.13. Compound `COc1ccc(CC(=O)NCc2ccccc2)cc1S(=O)(=O)N1CCOCC1` has a z-score of 0.0707. `CCOC(=O)c1c(NC2=NS(=O)(=O)c3ccccc32)sc2c1CCC(C)C2` (configuration not stated) showed a z-score of 0.00913. `COc1ccc(N=C2S/C(=C\c3ccc(C)s3)C(=O)N2CC(C)C)cc1` was tested, and the z-score was -0.0979. In the case of `C=C(C)c1cccc(C(C)(C)NC(=O)N2CCN(c3ccccn3)CC2)c1`, the z-score is reported as 0.0433. For `CCCCOC(=O)c1cc(C)nc2ccc(Br)cc12`, the z-score was 1.52. Compound `Cc1cc(/C=N/NC(=O)CC2(C)OCCO2)c(C)n1-c1cc(Cl)cc(Cl)c1` has a z-score of -2.4. Compound `C[C@@H](C(=O)Nc1ccccc1N1CCOCC1)N1C(=O)C2CC=CCC2C1=O` (some centres not stated) has a z-score of 0.142. Work on `O=C(O)CNS(=O)(=O)c1ccc(F)cc1` yielded a z-score of 0.5. In the case of `COC(=O)c1c(C)[nH]c(C(=O)/C=C/c2cccc(Cl)c2)c1C`, the z-score is reported as -0.238. `CC1=C(C(=O)OCCOC(C)C)C(c2cc3c(cc2Br)OCO3)C2=C(CCCC2=O)N1` (configuration not stated) gave a z-score of 0.16. Compound `COc1ccc(/C=C2/C(=O)N(Cc3ccccc3)N=C2C)cc1` has a z-score of -0.964. In the case of `CCOC(=O)c1c(C)sc2c1N(C(=O)CN(CC)CC)c1ccccc1S2`, the z-score is reported as 0.236. Work on `C(=C\c1ccccc1)/C=N/Nc1nc(N2CCOCC2)nc(N2CCOCC2)n1` yielded a z-score of -0.0103. In the case of `Cc1ccc(Oc2c(C=O)c3ccccc3n2C)cc1`, the z-score is reported as -0.989. `Cc1ccc(N2C(=O)c3ccc(N)cc3C2=O)cc1` was tested, and the z-score was -0.0975. In the case of `O=C(CN1CCN(c2ccccn2)CC1)NC(=O)NC1CCCCC1`, the z-score is reported as -0.285. In the case of `O=C(COC(=O)c1c[nH]c(=O)[nH]c1=O)NCc1ccccc1`, the z-score is reported as -0.131. `CCn1c(=N)n(CC(=O)c2ccco2)c2ccccc21` showed a z-score of 0.33. `Cc1ccnc(NC(=O)c2cccc(NC(=O)COc3ccccc3)c2)c1` gave a z-score of -0.283. With `COc1ccc(Cn2nnc3c(=O)[nH]c(C4CCN(C(=O)c5ccccc5Cl)CC4)nc32)cc1` the z-score was -0.185. `Cc1ccc(C)c(OCC(=O)N2CCN(C(=O)c3ccco3)CC2)c1` gave a z-score of -0.0604. Work on `CNC(=O)CSc1nc(N)c2c3c(sc2n1)CCC3` yielded a z-score of 0.0366. For `COc1ccccc1OC(C)C(=O)O` (configuration not stated), the z-score was -0.0437. Compound `CCOC(=O)c1[nH]c2ccccc2c1NC(=O)c1ccc(Br)o1` has a z-score of -0.785. With `CC(C)C(=O)Nc1ccc(NC(=O)c2ccc([N+](=O)[O-])cc2Cl)cc1` the z-score was 1.27. Compound `COc1cccc(-n2c(C)nc3c(cnn3-c3ccc(C)cc3)c2=O)c1` has a z-score of -0.574. `CCOC(=O)c1cc(C(=O)OCC)c2ccccn2c1=O` gave a z-score of -0.145. With `O=C(c1cnn2c(C(F)F)cc(-c3ccccc3)nc12)N1CCOCC1` the z-score was -0.341. `COCCCNc1ncnc2c1cnn2-c1ccc(C)cc1C` gave a z-score of -0.0529. `CC(C(=O)Nc1ccccc1Sc1ccccc1)N(c1ccccc1)S(C)(=O)=O` (configuration not stated) showed a z-score of -0.314. `COc1ccc(CNC(=S)Nc2cccc(C)c2C)cc1` was tested, and the z-score was -0.341. `COc1ccc(N2C(=O)CSC23C(=O)N2CCCc4cccc3c42)cc1` (configuration not stated) was tested, and the z-score was -0.413.
